# Read counts are not given, so values of variants with three or more changes are uncertain.
# B1: CPEB3 Ribozyme (parent)
# chain: UAACAGGGGGCCACAGCAGAAGCGUUCACGUCGCAGCCCCUGUCAGAUUCUGGUGAAUCUGCGAAUUCUGCUGUAUAUCUC
# Variants of: B1
# Assay: self-cleavage, relative activity (ratio to wild type); higher = more cleavage; in vitro, sequencing
# Method in brief: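 CPEB3 self-cleaving ribozyme mutant libraries were made by rounds of error-prone PCR, barcoded, and transcribed in vitro with T7 RNA polymerase for 5 hours at 37°C. Cleavage occurred during transcription and a 15 min DNase I step before EDTA stop. RNAs were reverse transcribed with template switching and Illumina-sequenced, with DNA sequencing mapping barcodes to variants. Relative activity is the variant's cleaved/total read fraction divided by wild type's (minimum 5 reads), averaged across three batches.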
row,Variant,self-cleavage
1,G9A A28U A65G U72A A77G,0.04
2,G8U U43A C62U,0.23
3,G9A U26C U41A C62U,0.28
4,G9A A18G C40U U41A A57U U74C,0.04
5,G9A C11A C23G C32A U51A U69C U72A,0.01
6,G9A U25A U78C,0.15
7,G9A G33C C39U U76C,0.11
8,G9A A15U U43C A64G,0.05
9,G9A U25C U41C U78C U80A,0.08
10,G9A A28U U49C C68A C71G,0.03
11,G9A A35G G36A U80C,0.07
12,G9A A21G U31C A35U A56G U80C,0.18
13,G9A G22U A45G U69G,0.06
14,G9A A18G U72C A77G,0.24
15,G9A U25C U43G A57C U72C U78C,0.08
16,G9A A15C A18G U51C U60C A64U,0.04
17,G9A A57U A75U,0.07
18,G9A A20U U43C,0.06
19,G9A A28C U49A A57G,0.05
20,G9A A13U U25C C27U A47G U78C,0.05
21,G9A G22A U26A U49A,0.14
22,G9A A21G U25C U51G,0.05
23,G9A A35G U66C,0.31
24,G9A U31A U80C,0.09

row,Variant,self-cleavage
1,G9A U31C A57U U67A,0.11
2,G9A U25A A28G G53A U58C,0.04
3,G8U U41C U51A G52U,0.15
4,G9A A18G A56G,0.25
5,G8U U66C U76C U80C,0.03
6,G9A C29G C38A U69A,0.05
7,G9A C34U C38A U51A U69A,0.05
8,G9A A21G C39G A56G U72C,0.05
9,G8U U67C C79G,0.12
10,G9A A15G C23U U26C U31A U60C,0.15
11,G9A A20G A35U U43C U49A U78C,0.2
12,G9A A18G A28U,0.24
13,G9A A18C G33A A45U U58C A75U,0.04
14,G9A G33C U60C U78C,0.05
15,G9A A18U G33A G52C U54A A64U U69C,0.09
16,G9A C68A U78C,0.36
17,G9A C39U C71U,0.23
18,G9A A18G A20G G33A U43A A47U U48C,0.06
19,G9A G16A G53U U54G A65U,0.04
20,G9A A35G A56U A65G,0.08
21,G9A A21G U54C U67C C68A,0.05
22,G9A A47G A57G U72G,0.41
23,G9A C12U A35G U43C U49C A56U,0.04
24,G9A C12A A57C A75U,0.15

row,Variant,self-cleavage
1,G9A A20G U43C C50A A65G U67C,0.04
2,G9A U26C U69C U78C,0.03
3,G9A A20G A28G C38U U49C,0.04
4,G9A G16A C23A U26C A45U A47U A56G,0.04
5,G9A A18G G24A U51C,0.14
6,G9A A20G A45U U48C C81U,0.27
7,G9A A15G U26C A45G A56G U58C U72G,0.16
8,G8U U41A U72A,0.13
9,G9A U26C G30A A47G U49C U67A,0.04
10,G8U U51A U54C U72C U76C A77G,0.06
11,G9A A15U A28G U31A U60A U67C,0.05
12,G9A U25A A56U U78C,0.16
13,G9A A15U G55U,0.27
14,G9A G19U A20G U26C A45U U54A,0.05
15,G9A A20U A28C,0.16
16,G9A C17U A28G,0.08
17,G9A G10A A18G U72A,0.12
18,G9A A20U U78A,0.05
19,G9A U26C U31C U54C U67A,0.1
20,G9A A28U G33A U43C U60A A65G,0.04
21,G9A A18G C40U U41A A45U A57G,0.21
22,G9A A47C U48C A64G,0.09
23,G9A G24U U51A A56G U78C,0.05
24,G9A U25A U31C C40U U51A,0.17

row,Variant,self-cleavage
1,G9A A28C U43G A75U,0.07
2,G9A G24A A35U A47G U54C,0.03
3,G9A U26C U41C A45G U54C U72A,0.04
4,G9A C17U C29G C44A U72A,0.05
5,G9A A13U U31A U51A C68U,0.04
6,G9A U31C U54C,0.15
7,G8U U41G U48C U58C,0.04
8,G9A C23U A35G U58C G70A,0.13
9,G8U U51A U74C A75G,0.13
10,G9A A18G U26A C32A A35G,0.23
11,G9A A15G G42A U54C A65U,0.12
12,G9A A35G C37U A75U,0.31
13,G9A A35U U51C U78C,0.05
14,G9A A15U U60C U67A U74A U80C,0.05
15,G9A A13U U41C G63A,0.37
16,G9A C11G U25C U54C U72A,0.05
17,G9A G10C G22U A28U U60C A65G U69C,0.09
18,G9A A15G U26A U54A,0.09
19,G9A A20U A28C U49C A56G U66C,0.05
20,G9A A47G A57G U60G,0.06
21,G9A U26C A28G A45G A47G U48C,0.06
22,G9A U26C U31A A47U U49A A57G,0.07
23,G9A A18U C29U C40U A47G U60C A75U,0.01
24,G9A U31C U48C U54C,0.12

row,Variant,self-cleavage
1,G9A C38U U43C A56G A57G U67A,0.04
2,G9A U26C A57C U72A,0.05
3,G9A U26A A35G G36C U60G A64G U80A,0.04
4,G9A A18G U26C C40U U41A,0.05
5,G8U U60A U69C U78C,0.06
6,G8U U31C U80A,0.05
7,G9A C11U C32U U60C U72A,0.04
8,G9A G10A U26G A35G C44A U48G U78C,0.04
9,G9A U26C C38A,0.06
10,G9A G16C G42C A57U,0.05
11,G9A A18G U31A U78A,0.06
12,G9A A45G U54A A56G,0.2
13,G9A A15G G19U,0.04
14,G9A C23G U31C U66A U72C,0.04
15,G9A A45G A57G U69C,0.14
16,G9A A56U U66C,0.06
17,G8U U60A C62U,0.13
18,G9A A56G U66G U72C,0.05
19,G9A U25C U26C A56U A65G C68A,0.03
20,G9A A20U U49C C71A A75G,0.04
21,G9A A13U U41C U60C,0.09
22,G9A G46A G55U,0.07
23,G9A A21G U25C A56U U60A,0.03
24,G9A A15G A28G C40U U60C U66C A75U,0.19

row,Variant,self-cleavage
1,G9A C71U U78A,0.31
2,G9A A28G A56U,0.21
3,G9A A20U G61C U78C U80C,0.05
4,G9A C23A A64G C81A,0.04
5,G8U U51C G63A U67C,0.06
6,G9A A15G U58A A64G U80C,0.09
7,G9A C29U A45G U60G U69C,0.09
8,G9A C14A U41C U76C U80A,1.09
9,G9A A35G U49C U51G U66C U74C,0.07
10,G9A A15G A18G A35G U67A,0.37
11,G9A A28C C40A,0.16
12,G9A A13C U72C,0.4
13,G9A A13G U78C,0.28
14,G9A C12G A15U A18U A45G,0.11
15,G9A U31C U41A A45G,0.06
16,G9A A13G U31C U60C,0.08
17,G9A C17G U41A A65G U72C U80C,0.13
18,G9A A18G U25C U69C U78C,0.05
19,G9A A13G A18G C40U U41A,0.06
20,G9A G19U C40A U51A U74C U78C,0.13
21,G9A A20U C39U,0.08
22,G9A C32A C40U A57G,0.17
23,G9A A64G U80C,0.23
24,G9A U26C U41C U60A,0.24

row,Variant,self-cleavage
1,G9A A15U A45U,0.09
2,G9A A56U U60C,0.06
3,G9A U25C U31G U72C,0.15
4,G9A A21G U25C U41C,0.41
5,G9A C14A G33A U41G A56G,0.08
6,G9A A15U A21G A35U A45C U60C,0.04
7,G9A C44U A56G,0.05
8,G9A G22A U26A A28G,0.21
9,G9A A15U A28G U67C U69A,0.13
10,G9A U25A A28G A35G U69C,0.13
11,G9A U31G A47G,0.05
12,G9A C34U C40G A45U U49A A57G U78C,0.03
13,G9A A15G U54A U78C,0.14
14,G9A U26C A56G,0.11
15,G8U U41C U48C A65G,0.14
16,G9A A35G U41C U48C C81A,0.75
17,G9A G22A U25A U67C,0.04
18,G9A C11A A13G A20U U43C U49C U72C,0.06
19,G9A G19U U26C A35G U43A U80A,0.06
20,G9A C23G G33A U51C U54C U67C U72C,0.04
21,G9A A47G U80C,0.27
22,G9A C29U A35U A45G,0.05
23,G9A A28G U60A A77G,0.13

# — the RNAGym collection of RNA variant scans (doi:10.1093/nar/gkz1192)
